Data from the supplement of paper PMC12217912.
This is one part of the list. Sequences were assembled here from the parent chain. Values near 0.05 are background.

B1: TEV protease; numbered along this chain (parent)
chain: MGESLFKGPRDYNPISSSICHLTNESDGHTTSLYGIGFGPFIITNKHLFRRNNGTLVVQSLHGVFKVKDTTTLQQHLVDGRDMIIIRMPKDFPPFPQKLKFREPQREERICLVTTNFQTKSMSSMVSDTSCTFPSGDGIFWKHWIQTKDGQCGSPLVSTRDGFIVGIHSASNFTNTNNYFTSVPKNFMELLTNQEAQQWVSGWRLNADSVLWGGHKVFMVKPEEPFQPVKEATQL

Variants of: B1
Test: raw area under fraction-flipped curve 0-4 h after induction (AUC4h, not background-subtracted), DNA-recorder readout of cleavage of the substrate (dimensionless); higher = more cleavage of the substrate by the protease variant
Details: temperature: 34 °C; time window: 0-4 h after rhamnose induction
Description: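 In vivo DNA recorder in E. coli TOP10(DE3) ΔrhaA at 34 °C. Each TEVp single-site mutant (parent TEVp 0) is paired with a single-site variant of the 7-mer TEVs (canonical ENLYFQ|S). The substrate sits between flexible linkers in a Bxb1-sfGFP-TEVs-SsrA fusion, so cleavage stabilises Bxb1 and speeds flipping of a recombination array, read by NGS. The value is the raw area under the fraction-flipped curve over 0-4 h after rhamnose induction (AUC4h), with ≥20 reads per time point. It is not background-subtracted; inactive controls average about 0.047.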
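Also: Bxb1 expression induced with 0.2% (w/v) L-rhamnose at OD600 near 0.5, cultures sampled hourly, flipped fraction per protease–substrate barcode pair counted by paired-end Illumina sequencing.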

Variant	area with substrate EALYFQS	area with substrate EDLYFQS	area with substrate EFLYFQS	area with substrate EGLYFQS	area with substrate EHLYFQS	area with substrate EKLYFQS	area with substrate ELLYFQS	area with substrate EMLYFQS	area with substrate ESLYFQS	area with substrate ETLYFQS	area with substrate EVLYFQS	area with substrate EWLYFQS	area with substrate EYLYFQS	area with substrate ECLYFQS	area with substrate EELYFQS	area with substrate EILYFQS	area with substrate EPLYFQS	area with substrate EQLYFQS	area with substrate ERLYFQS
H29I	0.117	0.127	0.104	0.099	0.0086	0.125	0.0703	0.109	0.105	0.119	0.138	0.0874	0.0973	–	–	–	–	–	–
H29M	0.102	–	0.083	0.101	0.126	0.0997	0.109	0.137	0.11	0.126	0.102	0.113	–	0.107	0.136	0.102	0.107	0.121	0.11
H29P	0.112	–	–	0.0662	0.102	0.0869	0.0953	0.101	0.0868	0.0812	0.0845	0.0873	–	0.082	0.105	0.0796	0.101	0.102	–
H29T	0.111	–	–	0.0843	–	0.116	–	–	0.127	–	0.111	–	–	0.0887	0.145	0.0789	–	–	–
T30R	0.117	–	0.0944	0.103	0.108	0.109	0.132	–	0.104	–	0.0963	0.0862	0.121	0.122	–	0.0786	0.118	–	–
T31V	0.152	0.131	–	0.101	–	0.0968	0.128	0.117	0.111	–	0.178	–	0.146	0.122	–	0.105	0.145	0.142	0.1
L33H	0.0652	–	–	0.0569	0.0653	0.053	0.0574	0.0776	0.0642	0.0731	0.0753	–	0.0974	0.0677	0.085	0.0503	0.0893	0.0724	0.0719
L33R	0.0582	–	0.0588	–	0.0676	–	0.0508	–	0.05	0.0638	0.0584	0.063	0.0665	0.042	0.0672	0.052	0.0564	0.0293	0.0674
L33Y	0.052	0.0589	–	–	0.0617	0.0563	0.0603	0.0475	0.0621	0.062	0.0601	–	–	0.0565	–	0.0669	0.0546	0.0704	0.0629
G37A	0.111	–	–	–	0.0988	0.12	–	–	0.104	0.0788	0.0882	0.0845	0.0905	0.118	0.12	0.0925	–	0.117	–
G37F	0.0666	0.0664	0.068	–	0.0673	–	0.0642	0.0911	0.0752	–	–	0.0699	0.0713	–	0.0813	–	0.0828	0.0764	0.0762
G37S	0.0746	–	–	–	–	–	0.0436	0.0823	0.0828	–	0.092	0.0786	–	0.0767	–	0.0836	0.0722	0.0965	0.0746
F38K	0.0429	0.0728	–	–	0.0578	0.0512	0.0618	0.0653	0.0593	0.0559	0.0624	0.0651	0.0833	–	–	0.0492	–	0.0688	0.0658
G39F	0.0435	–	0.0453	0.0525	–	0.0489	0.043	0.0442	0.048	–	0.0417	–	0.0355	0.0403	0.0486	0.0442	0.0377	–	0.0433
G39L	0.0343	–	–	–	–	0.0476	0.0357	0.0405	0.0436	0.104	0.0276	–	–	0.0305	0.0274	0.0408	–	–	–
G39Y	0.0517	–	0.0521	0.0512	–	0.0358	0.0519	0.0464	0.0454	0.0544	0.0396	–	–	0.0987	0.0324	0.0416	–	0.057	0.0319
P40Q	0.0753	–	–	0.0968	0.105	0.108	0.128	0.122	0.118	0.0724	0.104	–	–	0.111	0.144	0.124	0.123	0.135	0.108
F41A	0.0993	–	0.0894	–	0.0829	0.0838	–	0.0921	0.0934	0.103	0.095	0.0921	–	0.082	0.0565	0.0811	–	0.0802	0.0667
F41G	0.0724	0.0851	0.0679	0.0742	–	0.0736	0.0678	0.0778	0.0609	–	0.0742	0.0614	0.0772	–	0.0938	0.0736	0.0877	0.0777	0.0707
F41P	0.0438	–	0.0516	0.048	–	0.0607	0.0534	0.0569	0.0527	–	0.0419	0.0537	0.0275	0.047	0.0596	0.0473	0.0522	0.0437	0.0535
F41Q	0.0907	–	–	0.0939	0.0978	0.0813	–	0.0515	0.0638	–	0.0841	–	0.0688	0.0766	0.0822	0.0572	0.0981	0.0858	0.103
I42V	0.124	0.0955	–	–	0.126	0.108	–	0.105	0.102	0.123	–	0.0995	–	0.101	–	0.0889	–	0.138	0.0978
I43D	0.0364	–	0.0461	0.0501	0.0326	0.0342	0.0318	0.0439	0.0462	0.0302	0.0495	0.0531	0.0501	0.0406	0.0449	0.0388	–	0.0412	0.0862
I43H	0.0436	0.0409	–	–	0.044	0.0499	–	0.0481	0.0516	0.0595	–	–	0.041	–	–	0.0445	0.0471	–	0.0515
T44I	0.0384	–	0.0573	0.0582	–	–	0.0542	0.0545	0.0555	0.0672	–	0.0593	–	0.0383	0.0624	0.0444	–	0.0731	0.0578
T44N	0.0455	0.0425	–	–	–	0.0275	0.0483	–	0.0469	–	0.0444	0.0365	0.0453	0.0398	–	0.0347	0.0549	0.0438	0.0546
